For one molecule, IC50 results are on record in PubChem BioAssay AID2060328 (Molecular Pharmacology Branch, DTP, NCI, 2025).

This experiment concerns MDA-MB-231 multicell spheroids, viability (%T/C). The experiment can be described thus: Anticancer human tumor MDA-MB-231 cell line growth inhibition [IpAb].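 Also: viability read after seven days of drug exposure.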 The following applies: compound alone; run of 06/01/2021. The text has this: Combinatorial screen of targeted agents with ipatasertib and abemaciclib in multi-cell type tumor spheroids
A high-throughput screen of multi-cell type tumor spheroids was designed to identify active combinations of targeted small molecules and ipatasertib or abemaciclib. Complex spheroids include a stromal component modeled by human endothelial cells (HUVEC) and fibroblasts modeled by human mesenchymal stem cells (MSCs). The concentration ranges selected for each drug and investigational agent were based upon clinically achievable concentrations if the clinical Cmax of the agent was known.
Compounds. […] If the clinical Cmax for an agent had not been determined, the highest concentration tested was 10 microM.
NCI60 Cell Culture. […] The optimal seeding densities for each of the cell lines at each time point assessed were determined prior to performing the concentration response studies. […]

Not every entry of the source has a single result; some have several. The list is limited to them. There may be further records. Results that share an entry are repeats across runs, samples, wells, individuals or studies.

Regarding `CCN1CCN(Cc2ccc(Nc3ncc(F)c(-c4cc(F)c5nc(C)n(C(C)C)c5c4)n3)nc2)CC1`, the IC50 was 263 nM, 354 nM, 526 nM, 247 nM, 302 nM, 205 nM, 376 nM, 228 nM, 226 nM, > 1 µM, 285 nM.

The IC50 is the midpoint of a concentration-inhibition curve.
